Source: PubChem BioAssay AID686979 (National Center for Advancing Translational Sciences (NCATS), 2013)
Among all 420,000 compounds or so, about 50,000 (12%) were called active. The inconclusive results got no clear call from the source; some entries with a clear call stand among them for comparison. Calls follow the shape of the dose curve; as a rule, active = well fitted inhibition curve with a large enough effect; inconclusive = small, poorly fitted or top-dose-only effect; inactive = flat fitted curve, though single readings scatter. No potency is given beside an inconclusive call; the fits are too rough.

Experiment: qHTS for Inhibitors of human tyrosyl-DNA phosphodiesterase 1 (TDP1): qHTS in cells in presence of CPT; also: nearly all actives have a fitted effect of over 55% in size
Details: chicken DT40 Tdp1-/-;hTDP1 cells + 20 nM CPT, ATP luminescence, 48 h; activity change, negative = growth inhibition: at 46.2 µM (top of the series) unless noted
How it was run: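 Chicken DT40 Tdp1-/- cells stably complemented with human TDP1 were seeded at 400 cells/well in medium containing 20 nM camptothecin, exposed to pin-transferred compounds, and grown at 37 °C for at least 48 hr. Viability was read as ATP luminescence.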
% is scaled to controls: 0 for no effect and ±100 for the full control effect; potency is read from the fitted curve at half-maximal effect; tags tell the direction and shape of the fitted curve.

Question: For CCOc1ccc2oc(C(=O)NCC(C)(C)CN(C)C)c(C)c2c1, which Potency is on record?
Answer: inconclusive [inhibitor, single point]

Question: Which Potency does the source give for CCOC(=O)CN(C(=O)COc1nc(-c2ccccc2)cc(C)c1C#N)c1ccc(C)cc1 here?
Answer: inconclusive [inhibitor, single point]

Question: With Cc1[nH]c(C)c(S(=O)(=O)Nc2ccccc2Cl)c1C(=O)N1CCCC1 as the compound, how does the Potency read?
Answer: inactive

Question: With CC(C(=O)Nc1ccccc1-c1ccccc1)N(C)Cc1nc2ccccc2c(=O)[nH]1 (stereo not drawn) as the compound, how does the Potency read?
Answer: active: 13 µM

Question: With COc1cc(NC(=O)Cc2ccccc2)cc(OC)c1 as the compound, how does the Potency read?
Answer: inactive

Question: Which Potency does the source give for CCCOc1ccc(C2c3c(oc4ccccc4c3=O)C(=O)N2CCCN2CCOCC2)cc1 (stereo not drawn) here?
Answer: inconclusive [inhibitor, single point]

Question: Which Potency does the source give for CC(OC(=O)COc1ccccc1Cc1ccccc1)C(=O)N(C)c1ccccc1 (stereo not drawn) here?
Answer: inactive

Question: Which Potency does the source give for CCN(CCCNC(=O)Cn1ncc2c([nH]c3ccccc32)c1=O)Cc1ccccc1 here?
Answer: inactive

Question: Which Potency does the source give for O=C(CCCOc1cccc(Br)c1)NCCOc1ccccc1 here?
Answer: inactive

Question: For COc1ccc(C(C)(NC(C)=O)c2nc(-c3ccc(S(C)(=O)=O)cc3)cs2)cc1 (stereo not drawn), which Potency is on record?
Answer: inconclusive [inhibitor, single point]

Question: Which Potency does the source give for O=C(N/N=C(\Cc1ncc[nH]1)c1ccccc1)c1cccnc1 here?
Answer: active: 4.61 µM

Question: Which Potency does the source give for COc1ccc([C@@H]2[C@@H](C)N(c3ccccc3)c3ccccc3C(=O)N2Cc2ccccc2)cc1 here?
Answer: inconclusive [inhibitor, single point]

Question: For O=C(/C=C/c1cccs1)Nc1sc2c(c1C(=O)O)CCCC2, which Potency is on record?
Answer: inactive

Question: With CCOC(=O)C1CCCN(C(=O)COc2ccc(N(C)S(=O)(=O)c3ccc(F)cc3)cc2)C1 (stereo not drawn) as the compound, how does the Potency read?
Answer: inconclusive [inhibitor, single point]

Question: Which Potency does the source give for O=C(CN1CCN(S(=O)(=O)c2ccccc2)CC1)Nc1ccc(Cl)c([N+](=O)[O-])c1 here?
Answer: active: 20.6 µM

Question: With CCOC(=O)c1ccccc1NC(=O)COC(=O)C(CC)Oc1ccccc1 (stereo not drawn) as the compound, how does the Potency read?
Answer: inactive

Question: Which Potency does the source give for CCC(C(=O)NN1C(=O)c2ccccc2C1=O)c1ccccc1 (stereo not drawn) here?
Answer: inactive

Question: With CCOC(=O)C1=CCN(S(=O)(=O)c2ccccc2F)C1c1ccc(Cl)cc1 (stereo not drawn) as the compound, how does the Potency read?
Answer: inconclusive [inhibitor, single point]

Question: For O=C(N/N=C\c1ccc(-c2ccc(Cl)c(Cl)c2)o1)C(=O)N1CCCC1, which Potency is on record?
Answer: inconclusive [inhibitor, single point]

Question: Which Potency does the source give for C=CCN1C(=O)c2ccc(C(=O)N(C)CC(=O)Nc3ccc(Br)cc3C)cc2C1=O here?
Answer: inactive

Question: With Cc1ccc(Cl)cc1NC(=O)CCc1c(C)nc2c3cccnc3nn2c1C as the compound, how does the Potency read?
Answer: inconclusive [inhibitor, partial curve]

Question: With CC(C)c1nnc(NC(=O)CCC2CCCCC2)s1 as the compound, how does the Potency read?
Answer: inactive

Question: With COc1ccccc1OCCCCN1CCN(c2ccccc2OC)CC1 as the compound, how does the Potency read?
Answer: inconclusive [inhibitor, single point]

Question: With CCOC(=O)C1=C(CC)Nc2ccccc2N/C1=N\S(=O)(=O)c1ccc2ccccc2c1 as the compound, how does the Potency read?
Answer: inactive

Question: For COc1ccc2[nH]cc(CCNc3cc(-c4c(C)noc4C)ncn3)c2c1, which Potency is on record?
Answer: inconclusive [inhibitor, partial curve]

Question: With COc1ccc(CC(=O)Nc2ccc(N3CCCC3)c(C)c2)cc1 as the compound, how does the Potency read?
Answer: inconclusive [inhibitor, single point]

Question: For COc1ncc2ncc(=O)n(Cc3cccs3)c2n1, which Potency is on record?
Answer: inactive

Question: Which Potency does the source give for CC(O)(COc1ccccc1)c1ccc2c(c1)CN(Cc1cn[nH]c1-c1ccc(F)cc1)CCO2 (stereo not drawn) here?
Answer: inconclusive [inhibitor, single point]

Question: Which activity change, negative = growth inhibition does the source give for N#CCC(=O)N/N=C/c1ccc(OS(=O)(=O)c2ccccc2)cc1 here?
Answer: inconclusive: -1.19% [inhibitor]

Question: For COC1=CC(=NCl)C=CC1=NCl, which Potency is on record?
Answer: active: 20.6 µM

Question: For Cc1ccc2c(c1)N(C(=O)N1CCC(C(=O)NCCc3ccccc3)CC1)CC(C)O2 (stereo not drawn), which Potency is on record?
Answer: inconclusive [inhibitor, single point]

Question: Which Potency does the source give for COc1cccc(OC)c1C(=O)OCC(=O)N1CCC(Cc2ccccc2)CC1 here?
Answer: inactive

Question: Which Potency does the source give for Cc1nc(NC(=O)c2ccccc2)sc1-c1cc(C(=O)N2CCOCC2)nn1Cc1ccccc1 here?
Answer: active: 20.6 µM

Question: For Cc1cc(C)[n+](-c2ccc(Oc3ccccc3)c(S(=O)(=O)[O-])c2)[nH]1, which Potency is on record?
Answer: inconclusive [inhibitor, single point]

Question: With O=C(Nc1ccccc1)c1cc(C2CCCCN2S(=O)(=O)Cc2cccc(C(F)(F)F)c2)on1 (stereo not drawn) as the compound, how does the Potency read?
Answer: active: 20.6 µM

Question: For CC(C)(C)OC(=O)N1CCC(c2c(C(=O)NCCN3CCOCC3)cnn2-c2ccc(F)cc2)CC1, which Potency is on record?
Answer: inconclusive [inhibitor, partial curve]

Question: Which Potency does the source give for COCC(=O)N1CCCC(C(=O)c2ccc3c4c(cccc24)CC3)C1 (stereo not drawn) here?
Answer: inconclusive [inhibitor, single point]

Question: For c1ccc2c(NCCc3c[nH]c4ccccc34)c3ccccc3nc2c1, which Potency is on record?
Answer: active: 2.59 µM

Question: With O=S(=O)(NCc1ccccc1F)c1cccc(S(=O)(=O)N2CCOCC2)c1 as the compound, how does the Potency read?
Answer: inactive

Question: Which Potency does the source give for COc1ccc(CCC(C(O)C(F)(F)F)S(=O)c2ccccc2)cc1 (stereo not drawn) here?
Answer: inconclusive [inhibitor, single point]

Question: Which Potency does the source give for Cc1ccc(-c2csc3ncnc(-n4nnc5ccccc54)c23)cc1C here?
Answer: active: 20.6 µM

Question: For CN(C)C=NC(=O)c1ccc(N2CCN(c3ncc(C(F)(F)F)cc3Cl)CC2)cc1, which Potency is on record?
Answer: inconclusive [inhibitor, single point]

Question: With CCCOCn1cc(F)c(=O)[nH]c1=O as the compound, how does the Potency read?
Answer: inactive

Question: For CC(=O)Nc1ccc(CN2C(=O)C(Cc3ccccc3)ON=C2c2cccc(F)c2)cc1 (stereo not drawn), which Potency is on record?
Answer: inconclusive [inhibitor, single point]

Question: Which Potency does the source give for C/C=N\NC(=O)CNC(=O)CNC(=O)c1ccccc1 here?
Answer: inactive

Question: With Cc1cc(NC(=O)CSc2nc3c(sc4ccccc43)c(=O)n2CCc2ccccc2)n[nH]1 as the compound, how does the Potency read?
Answer: inconclusive [inhibitor, single point]

Question: For Cc1cc(NCc2ccccc2)nc2ccccc12, which Potency is on record?
Answer: inconclusive [inhibitor, single point]

Question: For CN(CC(=O)Nc1cccc(F)c1)C(=O)c1ccc(C2SCCS2)cc1, which Potency is on record?
Answer: inconclusive [inhibitor, single point]
